Data as given in publication PMC4336329 (PLoS ONE, 2015).
Out of some 310,000 compounds screened, about 14,000 (4.5%) showed an effect of 50% or more. The effect is printed as a negative number. The list shows a part of the results. *1 amine or outer side, *2 acyl side, *3 side chain or, on linkers, in order; H or OH if unused. Where a SMILES comes first, the peptide text is derived from it. The star is where a group is joined. CO = O=C([*:1])[*:2]; NHPh = c1ccc(N*)cc1

What follows are molecules tested against human ether-à-go-go-related gene (hERG) potassium channel (human, UniProt Q12809) (assay: primary screen, population patch clamp on CHO cells stably expressing hERG).
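Also: peak tail current of the secondary pulse compared with the same well before compound.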

Sequence of human ether-à-go-go-related gene (hERG) potassium channel (Q12809 whole entry, looked up): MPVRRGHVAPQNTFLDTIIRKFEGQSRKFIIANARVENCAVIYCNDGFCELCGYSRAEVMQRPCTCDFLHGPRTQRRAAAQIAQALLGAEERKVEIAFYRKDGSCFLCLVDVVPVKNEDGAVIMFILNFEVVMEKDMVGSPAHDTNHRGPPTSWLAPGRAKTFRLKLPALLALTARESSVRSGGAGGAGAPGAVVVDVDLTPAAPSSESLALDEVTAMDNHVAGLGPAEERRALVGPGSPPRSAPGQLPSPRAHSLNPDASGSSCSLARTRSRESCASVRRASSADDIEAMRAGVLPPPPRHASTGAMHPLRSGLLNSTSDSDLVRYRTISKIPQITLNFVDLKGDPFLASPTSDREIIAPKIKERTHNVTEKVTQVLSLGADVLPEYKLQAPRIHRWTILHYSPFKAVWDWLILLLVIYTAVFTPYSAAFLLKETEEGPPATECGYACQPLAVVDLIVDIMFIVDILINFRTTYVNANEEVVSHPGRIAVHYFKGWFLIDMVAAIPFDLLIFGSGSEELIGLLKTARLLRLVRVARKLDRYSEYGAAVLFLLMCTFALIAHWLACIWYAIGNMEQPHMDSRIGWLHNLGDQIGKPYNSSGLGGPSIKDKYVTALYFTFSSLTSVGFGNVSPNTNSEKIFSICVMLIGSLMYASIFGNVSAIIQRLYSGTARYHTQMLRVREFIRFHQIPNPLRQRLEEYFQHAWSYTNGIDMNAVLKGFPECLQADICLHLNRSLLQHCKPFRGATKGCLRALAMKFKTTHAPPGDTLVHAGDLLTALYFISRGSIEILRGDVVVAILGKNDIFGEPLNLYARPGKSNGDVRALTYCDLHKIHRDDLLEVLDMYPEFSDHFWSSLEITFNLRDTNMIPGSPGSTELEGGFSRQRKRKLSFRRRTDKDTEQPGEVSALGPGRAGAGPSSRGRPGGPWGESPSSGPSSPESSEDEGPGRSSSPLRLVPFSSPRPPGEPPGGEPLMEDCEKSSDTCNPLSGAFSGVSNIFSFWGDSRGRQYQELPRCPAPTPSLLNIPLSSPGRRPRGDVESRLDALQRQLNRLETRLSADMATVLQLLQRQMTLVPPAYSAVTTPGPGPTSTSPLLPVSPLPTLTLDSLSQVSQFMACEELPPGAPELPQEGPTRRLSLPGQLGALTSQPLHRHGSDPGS

Row | SMILES | hERG current change (%, negative = inhibition) at 10uM
1 | CCOc1ccc(C(CC(=O)O)NC(=O)COc2ccccc2)cc1OC (centres unmarked) | 13.2%
2 | Cc1cc(NC(=O)COC(=O)C2CCC(=O)N2)c([N+](=O)[O-])cc1C (centres unmarked) | 15.4%
3 | CC(=O)n1nc(-c2ccc(Cl)cc2)nc1NCc1ccco1 | 5.77%
4 | O=C(O)c1cccc(CN2C(=O)SC(Nc3ccccc3)C2=O)c1 (centres unmarked) | 2.16%
5 | O=C(Nc1cccc(Cl)c1)Nc1nnc(-c2ccccc2)o1 | 3.18%
6 | CCOC(=O)c1csc(NC(=O)COc2ccc(Cl)cc2Cl)n1 | -12.6%
7 | CSCCC(NS(=O)(=O)c1ccc(Cl)cc1)C(=O)OCC(=O)c1c(C)[nH]c2ccccc12 (centres unmarked) | 4.09%
8 | CCn1c2ccccc2c2nnc(SCC(=O)OCN3C(=O)c4ccccc4C3=O)nc21 | -3.64%
9 | CCOC(=O)c1cn[nH]c1C(F)(F)F | 9.82%
10 | Cc1ccccc1NCCNc1ccccc1C | -7.95%
11 | CCCc1cc(C(=O)Nc2cc(OC)c(Cl)cc2OC)no1 | 23.6%
12 | C=CCN(C(=O)c1csnn1)C(C(=O)NCc1ccc(F)cc1)c1ccc(F)cc1 (centres unmarked) | -21.8%
13 | Cc1ccc(C(=O)Nc2cccnc2)cc1NC(=O)c1ccco1 | 0.198%
14 | CCOC(=O)C1(Cc2cccc(OC)c2)CCCN(S(=O)(=O)c2cccnc2)C1 (centres unmarked) | -5.5%
15 | CCc1nnc(NC(=O)c2ccc(NC(=O)C(C)C)cc2)s1 | 13.6%
16 | CSc1cccc(NC(=O)CC(C)n2ccnc2)c1 (centres unmarked) | 6.56%
17 | CCC(=O)N(Cc1ccc(C)cc1)Cc1cc2cc3c(cc2[nH]c1=O)OCO3 | -2.24%
18 | COCCNC(=O)Cn1cnc2c(cnn2-c2ccc(C)cc2)c1=O | -4.98%
19 | O=C(c1ccc(Br)cc1)N(c1ccccn1)C1CCCCC1 | -8.55%
20 | Cc1cc(NC(=O)C2CCCCC2)nc2c1c(=O)oc1ccccc12 | 3.61%
21 | CC(CCc1ccccc1)NC(=O)c1ccc(F)cc1 (centres unmarked) | 1.77%
22 | COc1cccc(CC2(CO)CCCN(Cc3ccc(CO)o3)C2)c1 (centres unmarked) | -7.04%
23 | O=C(c1ncc[nH]1)c1ccccc1C(=O)N1CCOCC1 | 10.1%

Row | SMILES | hERG current change (%, negative = inhibition) at 10uM
24 | CCc1ccccc1NC(=O)c1nnn(CC(=O)Nc2cccc(C)c2)c1N | -0.998%
25 | Cc1ccc(C)c(NNC(=O)C(=O)NNc2cc(C)ccc2C)c1 | 21.4%
26 | O=C(Nc1ccc(N2CCN(C(=O)c3ccccc3)CC2)cc1)c1ccc2c(c1)OCCO2 | 1.43%
27 | CCCn1c(=O)c(-c2ccccc2)c(O)c2ccccc21 | 14.6%
28 | CN(C)C(=O)CSc1n[nH]c(-c2ccco2)n1 | 15.9%
29 | Cc1nnnn1/C(=C\c1ccccc1)C(=O)OCC(=O)NC1CCCCC1 | -3.81%
30 | COC(=O)c1c(C)[nH]c(C)c1C(C)=O | 9.23%
31 | COc1ccc(C(=O)CSc2nc3ccccc3n2CC(=O)NC(C)(C)C)cc1 | -12.3%
32 | O=S(=O)(NCc1ccc2c(c1)OCO2)c1cccc(S(=O)(=O)N2CCOCC2)c1 | 10.6%
33 | NNC(=S)NCc1ccccc1 | 9.98%
34 | O=C(Nc1c(Cl)ccc2nsnc12)c1ccco1 | 12.4%
35 | O=C(COC(=O)C1CCC(=O)N1)Nc1cc(Cl)ccc1Cl (centres unmarked) | 6%
36 | CCOC(=O)C(C)N1C(=O)S/C(=C\c2ccc(-c3ccccc3C(=O)O)o2)C1=O (centres unmarked) | 20%
37 | CC(=O)c1ccc(NC(=O)CSc2ccc(-c3ccc4c(c3)OCO4)nn2)cc1 | 5.55%
38 | CN(C(=O)c1ccco1)C1(c2ccccc2Cl)CCCCC1=O (centres unmarked) | 10.1%
39 | O=C(Nc1ccc2c(c1)OCO2)C1CCCN(S(=O)(=O)Cc2ccccc2)C1 (centres unmarked) | -2.41%
40 | O=C(NCc1ccc(Cl)cc1)C(=O)NCC1CCCN1S(=O)(=O)c1cccs1 (centres unmarked) | -22.7%
41 | CCc1ccc(CNC(=O)CCn2ccc3cc(S(=O)(=O)N4CCCC4)ccc32)cc1 | -9.2%
42 | O=C(Nc1nccs1)c1ccccc1N=Cc1ccccc1 | -1.38%
43 | C/C(CCc1ccccc1)=N\NC(=O)COc1ccccc1C | -9.5%
44 | C=CCSc1nc(C)cc2c1C(=O)OC2 | 6.64%
45 | O=C(Nc1cccc(C(F)(F)F)c1)NC1CCN(S(=O)(=O)c2ccc(F)cc2)CC1 | 12.2%
46 | Cc1ccc2c(c1)N(C(=O)CCC(=O)N1CCC3(CC1)OCCO3)CC(C)O2 (centres unmarked) | 14.5%

Row | SMILES | hERG current change (%, negative = inhibition) at 10uM
47 | O=C(COC(=O)c1ccccn1)NCc1cccs1 | -16.3%
48 | CCCn1cnc2cc(NCc3ccccc3O)ccc21 | -0.21%
49 | CSc1ccccc1C(=O)NCc1cccnc1 | 5.77%
50 | Cc1nc(C)c(-c2ccccc2)c(=O)[nH]1 | 18%
51 | Cc1nn(-c2cc(N3CCCCC3)ccc2N)c(=O)c2ccccc12 | -1.51%
52 | CC(C)(C)N1NC(=O)Nc2ccccc2C1=O | -5.55%
53 | CC(C)CN(CC(C)C)C(=O)CCCC(=O)N(CC(C)C)CC(C)C | -6.3%
54 | COc1ccc(/C=C(\NC(=O)c2ccc(Cl)cc2)C(=O)NCC2CCCO2)cc1OC (centres unmarked) | 0.622%
55 | O=C(CN1C(=O)C2CC=CCC2C1=O)NC1=NCCS1 (centres unmarked) | 7.35%
56 | Cc1sc(NC(=O)CSc2nnnn2C)c(C#N)c1C | -8.76%
57 | CCn1c(SCC(=O)N2CCN(c3ccccc3F)CC2)nnc1-c1ccoc1C | -28.2%
58 | N/C(Cc1ccc([N+](=O)[O-])cc1)=N\OC(=O)c1ccco1 | -26.8%
59 | COC(=O)c1ccc(COc2cc(C)cc3oc(=O)c4c(c23)CCCC4)o1 | 12.6%
60 | CN(/N=C/C=C/c1ccccc1)C1=NS(=O)(=O)c2ccccc21 | 4.8%
61 | CCn1cc(SCC(N)=O)c2ccccc21 | 2.49%
62 | COc1ccc(C(=O)OC(C(=O)c2ccccc2)c2ccccc2)cc1 (centres unmarked) | 3.44%
63 | Cc1csc(=O)n1CCC(=O)O | 17.3%
64 | O=C(Nc1ccccc1NC(=O)c1c(F)cccc1F)c1c(F)cccc1F | 25.4%
65 | Clc1ccc(C[n+]2cc(-c3ccc(Cl)cc3)n3c2CCC3)cc1.[Cl-] | -61.9%
66 | Cc1ccc2nccc(C(=O)N3CCCC(Nc4ccc(C)c(C)c4)C3)c2c1 (centres unmarked) | -14.3%
67 | CCOC(=O)c1cnc2ccccc2c1Nc1cc(C(=O)O)ccc1C | 14.9%
68 | O=C(O)C1CC(=O)N(Cc2cccnc2)C1 (centres unmarked) | 3.95%
69 | COc1ccc(N(CC(=O)N2CCN(c3ccc(Cl)cc3)CC2)S(=O)(=O)c2c(C)noc2C)cc1 | -12.2%

Row | SMILES | hERG current change (%, negative = inhibition) at 10uM
70 | CCCCCCSc1nsc(NC(=O)CCC)n1 | 10.6%
71 | O=C(Nc1cccc2ccccc12)N1CC=C(c2ccccc2)CC1 | 19.7%
72 | CCC(=O)NC(=S)Nc1ccc(NC(=O)c2ccco2)cc1 | 12.1%
73 | O=C(NCc1ccco1)c1ccc(CS(=O)(=O)Cc2ccc(F)cc2)o1 | -18.7%
74 | COC(CNC(=O)c1ccc2c(c1)ncn2C1CCCCCC1)OC | 4.09%
75 | O=C(CSc1ccccc1)Nc1ccc2sccc2c1 | 10.3%
76 | COc1ccc(C2=NN(C(=O)c3cccs3)C(c3ccccc3OC)C2)cc1OC (centres unmarked) | -0.915%
77 | OCC[C@H]1C[C@@H](O)[C@H](O)[C@@]2(Cc3ccccc3CO2)O1 | 10%
78 | O=C(CCC1CCN(C(=O)c2cncs2)CC1)Nc1ccccc1 | -4.83%
79 | CCCNC1=C(N(C(C)=O)c2cccc(F)c2)C(=O)c2ccccc2C1=O | 5.26%
80 | O=C(CCn1cnc2ccccc2c1=O)Nc1ccc(S(=O)(=O)N2CCCCC2)cc1 | 5.86%
81 | O=C(N/N=C/c1ccc(Br)s1)c1ccc([N+](=O)[O-])cc1 | 17%
82 | COc1ccc(NC(=O)C2CC3CCC2C3)c(OC)c1 (centres unmarked) | -6.88%
83 | O=C(NCCN1CCOCC1)c1cc(-c2ccccc2Cl)on1 | 4.93%
84 | COc1ccc(C(=O)Oc2ccc(C(C)=O)cc2)c(OC)c1 | 1.72%
85 | COc1ccc(C(=O)Nc2nc3ccccc3s2)cc1OC | -65.8%
86 | O=C(CN(Cc1ccc(F)cc1)C(=O)CNS(=O)(=O)c1ccccc1)NCc1ccco1 | -6.75%
87 | COC(=O)CNC(=O)CNC(=O)Nc1ccccc1 ({NHPh-CO}-Gly-Gly-OMe) | -0.958%
88 | CCc1ccc(C(=O)NNC(=S)Nc2ccc(S(N)(=O)=O)cc2)s1 | 16.6%
89 | COc1ccccc1NC(=O)CSc1nc(O)c(Cc2ccccc2)c(=O)[nH]1 | 9.93%
90 | CCCCc1ccc(NC(=O)CSCc2cc(=O)[nH][nH]2)cc1 | -11.6%
91 | CC1(C)CC(=O)C=C(Nc2ccc(C(=O)O)cc2)C1 | 14.7%
92 | COc1cc(NC(=O)c2sc3ncn(CC(=O)N4CCC(C)CC4)c(=O)c3c2C)cc(OC)c1OC | 3.73%
